The target in experiment [1] is T1, V5-SBP-tagged Dm Roquin (full-length) (Drosophila melanogaster) (UniProt Q9VV48).
T1 sequence: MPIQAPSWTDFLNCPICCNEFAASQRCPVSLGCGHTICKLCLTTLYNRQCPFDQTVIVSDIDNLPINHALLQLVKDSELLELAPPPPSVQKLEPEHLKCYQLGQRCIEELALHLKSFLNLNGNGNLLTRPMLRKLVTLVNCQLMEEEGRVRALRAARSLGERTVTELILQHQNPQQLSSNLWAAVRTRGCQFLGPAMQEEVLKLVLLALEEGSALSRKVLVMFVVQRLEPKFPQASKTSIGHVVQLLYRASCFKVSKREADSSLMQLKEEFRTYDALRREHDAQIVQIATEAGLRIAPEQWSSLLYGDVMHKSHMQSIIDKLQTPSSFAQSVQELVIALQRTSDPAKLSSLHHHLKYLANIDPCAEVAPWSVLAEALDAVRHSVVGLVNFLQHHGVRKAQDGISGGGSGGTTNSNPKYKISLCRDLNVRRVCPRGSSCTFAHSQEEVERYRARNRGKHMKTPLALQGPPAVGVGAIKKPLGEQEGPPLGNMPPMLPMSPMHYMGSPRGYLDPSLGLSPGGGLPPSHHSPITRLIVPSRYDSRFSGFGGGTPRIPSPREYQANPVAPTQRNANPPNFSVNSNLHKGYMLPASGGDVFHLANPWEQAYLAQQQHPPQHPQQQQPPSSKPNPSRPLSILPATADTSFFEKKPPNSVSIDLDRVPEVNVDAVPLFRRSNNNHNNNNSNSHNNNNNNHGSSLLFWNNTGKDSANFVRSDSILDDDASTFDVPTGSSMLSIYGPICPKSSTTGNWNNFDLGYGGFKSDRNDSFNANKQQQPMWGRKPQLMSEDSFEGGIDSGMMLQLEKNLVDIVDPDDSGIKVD
In words: pull-down; SBP pulldown from lysates of HEK293T cells expressing V5-SBP-tagged Roquin proteins (bait); endogenous NOT1, NOT2 and NOT3 in the bound fractions detected by western blotting. A general note: A western blot detects proteins with antibodies after separation by electrophoresis.

Protein sequences, listed by entry. Tags and fused reporters are not part of them.
UniProt O75175: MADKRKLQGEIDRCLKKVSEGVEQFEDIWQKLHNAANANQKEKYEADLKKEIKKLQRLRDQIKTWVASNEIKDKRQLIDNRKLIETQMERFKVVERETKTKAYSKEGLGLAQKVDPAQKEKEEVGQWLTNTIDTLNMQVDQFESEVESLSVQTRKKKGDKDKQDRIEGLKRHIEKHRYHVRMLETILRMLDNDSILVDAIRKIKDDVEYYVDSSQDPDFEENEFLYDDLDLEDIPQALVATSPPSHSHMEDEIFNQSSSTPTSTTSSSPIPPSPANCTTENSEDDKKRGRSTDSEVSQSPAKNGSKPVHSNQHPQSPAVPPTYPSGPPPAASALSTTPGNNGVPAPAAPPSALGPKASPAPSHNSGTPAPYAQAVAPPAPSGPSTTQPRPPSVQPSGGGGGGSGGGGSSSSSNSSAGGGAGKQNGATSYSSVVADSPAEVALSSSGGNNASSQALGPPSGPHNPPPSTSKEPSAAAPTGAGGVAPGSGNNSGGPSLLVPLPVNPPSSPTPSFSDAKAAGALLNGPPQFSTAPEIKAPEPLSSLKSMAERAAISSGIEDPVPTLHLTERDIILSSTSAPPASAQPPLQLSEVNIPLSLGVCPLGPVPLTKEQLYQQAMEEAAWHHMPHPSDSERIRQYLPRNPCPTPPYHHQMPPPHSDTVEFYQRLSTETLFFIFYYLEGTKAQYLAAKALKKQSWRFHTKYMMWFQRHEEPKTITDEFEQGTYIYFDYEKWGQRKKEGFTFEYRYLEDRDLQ
UniProt Q7JVP2: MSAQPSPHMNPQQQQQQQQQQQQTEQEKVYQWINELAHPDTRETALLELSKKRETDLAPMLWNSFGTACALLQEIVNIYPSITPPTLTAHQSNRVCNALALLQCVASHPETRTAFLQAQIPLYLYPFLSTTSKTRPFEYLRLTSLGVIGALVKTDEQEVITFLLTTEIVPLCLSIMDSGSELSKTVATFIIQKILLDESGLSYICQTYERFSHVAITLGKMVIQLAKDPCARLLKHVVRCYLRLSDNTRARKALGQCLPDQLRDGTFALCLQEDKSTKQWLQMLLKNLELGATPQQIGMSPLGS
UniProt Q9NZN8: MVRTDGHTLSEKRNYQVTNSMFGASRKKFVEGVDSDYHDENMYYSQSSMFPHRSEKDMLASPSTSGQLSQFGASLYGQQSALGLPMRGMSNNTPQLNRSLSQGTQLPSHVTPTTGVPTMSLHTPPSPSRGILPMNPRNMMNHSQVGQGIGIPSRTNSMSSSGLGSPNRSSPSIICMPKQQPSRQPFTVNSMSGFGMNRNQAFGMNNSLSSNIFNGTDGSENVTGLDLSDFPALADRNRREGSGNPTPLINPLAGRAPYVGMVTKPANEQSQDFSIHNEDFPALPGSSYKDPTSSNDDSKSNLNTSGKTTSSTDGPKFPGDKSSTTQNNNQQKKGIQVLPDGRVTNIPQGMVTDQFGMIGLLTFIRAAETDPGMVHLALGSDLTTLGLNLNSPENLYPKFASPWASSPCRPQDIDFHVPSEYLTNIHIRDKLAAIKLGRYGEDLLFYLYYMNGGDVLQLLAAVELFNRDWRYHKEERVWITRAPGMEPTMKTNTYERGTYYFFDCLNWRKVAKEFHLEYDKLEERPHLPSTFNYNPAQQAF
UniProt A5YKK6: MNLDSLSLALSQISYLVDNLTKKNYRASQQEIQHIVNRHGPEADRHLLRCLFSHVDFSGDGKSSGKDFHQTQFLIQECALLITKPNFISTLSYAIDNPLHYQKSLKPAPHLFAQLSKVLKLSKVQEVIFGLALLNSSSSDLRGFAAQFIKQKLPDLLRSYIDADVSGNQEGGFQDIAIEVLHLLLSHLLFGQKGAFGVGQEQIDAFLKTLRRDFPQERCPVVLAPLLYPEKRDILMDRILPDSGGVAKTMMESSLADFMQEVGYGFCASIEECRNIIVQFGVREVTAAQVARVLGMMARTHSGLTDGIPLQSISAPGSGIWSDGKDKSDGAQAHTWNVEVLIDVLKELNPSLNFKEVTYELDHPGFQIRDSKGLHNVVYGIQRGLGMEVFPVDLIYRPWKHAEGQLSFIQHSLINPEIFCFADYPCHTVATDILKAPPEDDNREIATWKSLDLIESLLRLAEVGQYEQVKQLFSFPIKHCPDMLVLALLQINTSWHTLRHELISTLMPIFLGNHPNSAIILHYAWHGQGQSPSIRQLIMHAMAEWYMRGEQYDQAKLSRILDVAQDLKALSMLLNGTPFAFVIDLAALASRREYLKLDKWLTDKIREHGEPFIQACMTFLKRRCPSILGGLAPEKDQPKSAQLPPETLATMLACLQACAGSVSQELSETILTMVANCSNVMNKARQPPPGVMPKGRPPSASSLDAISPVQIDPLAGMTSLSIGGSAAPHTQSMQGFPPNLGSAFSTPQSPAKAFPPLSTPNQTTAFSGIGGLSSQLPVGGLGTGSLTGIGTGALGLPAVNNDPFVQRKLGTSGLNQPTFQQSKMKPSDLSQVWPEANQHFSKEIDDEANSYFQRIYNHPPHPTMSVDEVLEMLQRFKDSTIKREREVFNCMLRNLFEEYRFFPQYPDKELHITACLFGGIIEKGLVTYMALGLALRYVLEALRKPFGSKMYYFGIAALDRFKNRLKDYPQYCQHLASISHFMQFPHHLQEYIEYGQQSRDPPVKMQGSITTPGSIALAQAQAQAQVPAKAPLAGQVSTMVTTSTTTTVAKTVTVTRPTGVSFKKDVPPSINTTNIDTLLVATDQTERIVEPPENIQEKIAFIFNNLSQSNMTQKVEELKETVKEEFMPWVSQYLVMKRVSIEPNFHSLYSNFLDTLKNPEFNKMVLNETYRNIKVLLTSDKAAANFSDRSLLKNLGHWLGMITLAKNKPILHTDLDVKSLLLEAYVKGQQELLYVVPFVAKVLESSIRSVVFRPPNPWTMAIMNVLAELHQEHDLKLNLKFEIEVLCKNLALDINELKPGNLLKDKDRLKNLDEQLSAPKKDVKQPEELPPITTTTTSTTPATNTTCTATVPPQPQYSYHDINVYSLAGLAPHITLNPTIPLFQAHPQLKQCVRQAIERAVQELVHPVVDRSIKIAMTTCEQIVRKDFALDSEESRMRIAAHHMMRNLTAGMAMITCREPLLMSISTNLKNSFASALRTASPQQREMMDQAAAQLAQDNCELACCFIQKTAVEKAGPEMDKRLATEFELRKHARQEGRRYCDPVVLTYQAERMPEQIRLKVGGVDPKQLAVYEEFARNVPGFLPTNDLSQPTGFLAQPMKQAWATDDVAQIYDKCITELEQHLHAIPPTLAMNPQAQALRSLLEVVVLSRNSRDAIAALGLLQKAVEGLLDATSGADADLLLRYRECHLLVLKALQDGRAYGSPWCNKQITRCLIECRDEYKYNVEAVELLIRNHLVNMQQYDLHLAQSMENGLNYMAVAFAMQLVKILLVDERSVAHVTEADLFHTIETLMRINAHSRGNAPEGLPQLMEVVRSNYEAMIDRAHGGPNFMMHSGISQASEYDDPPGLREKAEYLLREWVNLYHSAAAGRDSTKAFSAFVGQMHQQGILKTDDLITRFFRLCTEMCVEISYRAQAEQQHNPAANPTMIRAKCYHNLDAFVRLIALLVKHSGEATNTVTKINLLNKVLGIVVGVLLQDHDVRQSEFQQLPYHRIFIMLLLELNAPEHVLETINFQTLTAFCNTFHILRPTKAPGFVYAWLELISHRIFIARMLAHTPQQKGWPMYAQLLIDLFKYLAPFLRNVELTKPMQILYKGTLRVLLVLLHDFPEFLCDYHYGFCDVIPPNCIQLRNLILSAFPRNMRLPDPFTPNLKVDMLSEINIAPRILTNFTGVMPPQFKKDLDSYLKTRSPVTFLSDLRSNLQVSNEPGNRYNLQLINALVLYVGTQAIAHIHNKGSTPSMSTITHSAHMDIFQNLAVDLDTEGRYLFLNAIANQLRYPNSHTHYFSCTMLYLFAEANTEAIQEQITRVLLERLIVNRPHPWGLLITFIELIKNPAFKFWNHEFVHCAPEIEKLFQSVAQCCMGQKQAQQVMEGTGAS

The target of experiment [2] is T2, V5-SBP-tagged Hs Roquin2 (full-length) (human) (UniProt Q9HBD1).
T2 sequence: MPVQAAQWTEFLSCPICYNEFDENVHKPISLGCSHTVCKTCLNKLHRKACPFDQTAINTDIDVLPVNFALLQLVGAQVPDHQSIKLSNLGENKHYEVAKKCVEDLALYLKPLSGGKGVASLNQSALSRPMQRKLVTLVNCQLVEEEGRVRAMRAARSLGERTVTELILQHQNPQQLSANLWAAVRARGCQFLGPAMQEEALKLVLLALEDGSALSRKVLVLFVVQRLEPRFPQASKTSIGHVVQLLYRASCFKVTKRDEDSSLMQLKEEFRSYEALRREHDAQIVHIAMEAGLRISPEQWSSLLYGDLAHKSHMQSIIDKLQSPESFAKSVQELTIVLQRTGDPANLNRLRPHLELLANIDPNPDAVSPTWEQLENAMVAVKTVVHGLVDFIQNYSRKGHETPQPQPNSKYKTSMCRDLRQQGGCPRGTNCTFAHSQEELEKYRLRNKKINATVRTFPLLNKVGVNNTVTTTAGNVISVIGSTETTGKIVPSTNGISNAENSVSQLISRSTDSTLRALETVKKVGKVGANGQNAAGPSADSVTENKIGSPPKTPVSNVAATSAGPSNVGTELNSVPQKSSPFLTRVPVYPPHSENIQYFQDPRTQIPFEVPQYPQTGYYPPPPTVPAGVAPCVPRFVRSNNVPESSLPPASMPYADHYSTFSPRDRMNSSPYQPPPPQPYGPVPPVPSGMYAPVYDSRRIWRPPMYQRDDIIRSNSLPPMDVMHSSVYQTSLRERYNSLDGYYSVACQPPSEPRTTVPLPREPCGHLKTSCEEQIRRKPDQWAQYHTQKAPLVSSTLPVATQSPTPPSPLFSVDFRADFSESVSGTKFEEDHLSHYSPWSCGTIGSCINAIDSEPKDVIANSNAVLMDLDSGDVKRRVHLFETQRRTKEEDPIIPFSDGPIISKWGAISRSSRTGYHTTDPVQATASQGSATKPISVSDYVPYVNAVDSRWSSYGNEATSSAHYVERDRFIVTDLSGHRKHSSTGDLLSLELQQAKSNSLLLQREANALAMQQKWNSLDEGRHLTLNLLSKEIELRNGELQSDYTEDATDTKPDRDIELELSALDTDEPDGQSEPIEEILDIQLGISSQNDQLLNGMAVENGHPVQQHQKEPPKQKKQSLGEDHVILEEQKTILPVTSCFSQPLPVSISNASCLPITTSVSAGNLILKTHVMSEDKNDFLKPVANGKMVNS
The description is as above.

For experiment [3], the target named is T3, GFP-tagged Dm Roquin (full-length, wild-type) (Drosophila melanogaster) (UniProt Q9VV48).
T3 sequence: T1 sequence
In words: co-IP; GFP-tagged Dm Roquin and HA-tagged deadenylase or decapping factors co-expressed in Dm S2 cells; lysates treated with RNase A; anti-GFP and anti-HA blots.

These are yes or no findings as the source states them, for the method shown. In cells and extracts the contact can be indirect. Some binding calls cover weakened binding; strength is not graded here. Sequences can lack the tags named with a protein.

On to “endogenous NOT3 (HEK293T) (from UniProt O75175 1-753)”, for which the binding result in experiment [1] and in experiment [2] was “binds” throughout.
For the substance “HA-tagged Dm CAF40 (full-length, wild-type) (from UniProt Q7JVP2 1-304)”, the binding entry in experiment [3] is listed as “binds”.
Take “endogenous NOT2 (HEK293T) (from UniProt Q9NZN8 1-540)”: the binding entry in experiment [1] and in experiment [2] was “binds” throughout.
Turning to “endogenous NOT1 (HEK293T) (from UniProt A5YKK6 1-2376)”, the binding result in experiment [1] and in experiment [2] was “binds” each time.

For the origin of these results see PMC5303829, “A CAF40-binding motif facilitates recruitment of the CCR4-NOT complex to mRNAs targeted by Drosophila Roquin” (Nature Communications, 2017).
